# PubChem BioAssay AID330 (DTP/NCI, 2004)
# “And” between values parts separate entries of the source, which are not always exact repeats. Equal entries are not always repeated. Further values from the same series stand in other lists. Inconclusive results and toxic doses are left out.
# System: P388 leukemia ip, CD2F1 mice, survival T/C
# Test: NCI In Vivo Anticancer Drug Screen. Data for tumor model P388 Leukemia (intraperitoneal) in CD2F1 (CDF1) mice
# Conditions: endpoint: median survival time, higher = longer survival
# Protocol: The antitumor activity of compounds was measured in mice bearing transplantable tumors. Survival or tumor size were measured and the results are expressed as the measurement made in the treated group (T) divided by the measurement made in the vehicle treated control group (C). The tumor model used in this assay is P388 Leukemia (intraperitoneal) in CD2F1 (CDF1) mice
structure (smiles),measurement,setting,value
COc1cc2cc(c1Cl)N(C)C(=O)C[C@H](OC(=O)[C@H](C)N(C)C(C)=O)[C@]1(C)O[C@H]1[C@H](C)[C@@H]1C[C@@](O)(NC(=O)O1)[C@H](OC)C=C/C=C(\C)C2,T/C,"dose: 0.07 mg/kg/injection, schedule: Q04DX003 (ip), vehicle: saline",183 % of control
same,T/C,"dose: 0.11 mg/kg/injection, schedule: Q04DX003 (ip), vehicle: saline",188 % of control
same,T/C,"dose: 0.24 mg/kg/injection, schedule: Q04DX002 (ip), vehicle: saline + alcohol",92 % of control
same,T/C,"dose: 0.3 mg/kg/injection, schedule: Q04DX003 (ip), vehicle: saline",218 % of control
same,T/C,"dose: 0.4 mg/kg/injection, schedule: Q04DX002 (ip), vehicle: saline + alcohol",89 % of control
same,T/C,"dose: 0.3 micrograms/kg/injection, schedule: Q01DX009 (sc), vehicle: other",95 % of control
same,T/C,"dose: 1.0 micrograms/kg/injection, schedule: Q01DX001 (sc), vehicle: other",95 % of control
same,T/C,"dose: 2.0 micrograms/kg/injection, schedule: Q01DX009 (oral), vehicle: other",95 % of control
same,T/C,"dose: 4.0 micrograms/kg/injection, schedule: Q01DX001 (sc), vehicle: other",90 % of control
same,T/C,"dose: 16.0 micrograms/kg/injection, schedule: Q01DX009 (ip), vehicle: other",186 % of control
same,T/C,"dose: 16.0 micrograms/kg/injection, schedule: Q01DX009 (ip), vehicle: water",175 % of control
same,T/C,"dose: 16.0 micrograms/kg/injection, schedule: Q03HX008 (ip), vehicle: other",181 % of control
same,T/C,"dose: 16.0 micrograms/kg/injection, schedule: Q03HX016 (ip), vehicle: other",190 % of control
same,T/C,"dose: 16.0 micrograms/kg/injection, schedule: Q03HX016 (ip), vehicle: saline + alcohol",181 % of control
same,T/C,"dose: 16.0 micrograms/kg/injection, schedule: Q03HX024 (ip), vehicle: saline + alcohol",195 % of control
same,T/C,"dose: 32.0 micrograms/kg/injection, schedule: Q03HX008 (ip), vehicle: other",200 % of control
same,T/C,"dose: 32.0 micrograms/kg/injection, schedule: Q03HX008 (ip), vehicle: saline + alcohol",181 % of control
same,T/C,"dose: 32.0 micrograms/kg/injection, schedule: Q03HX016 (ip), vehicle: other",177 % of control
same,T/C,"dose: 32.0 micrograms/kg/injection, schedule: Q04DX003 (ip), vehicle: water",181 % of control
same,T/C,"dose: 64.0 micrograms/kg/injection, schedule: Q03HX016 (ip), vehicle: saline + alcohol",177 % of control
same,T/C,"dose: 64.0 micrograms/kg/injection, schedule: Q04DX003 (ip), vehicle: other",181 % of control
same,T/C,"dose: 64.0 micrograms/kg/injection, schedule: Q04DX003 (ip), vehicle: water",177 % of control
same,T/C,"dose: 100.0 micrograms/kg/injection, schedule: Q01DX005 (ip), vehicle: saline",200 % of control
same,T/C,"dose: 100.0 micrograms/kg/injection, schedule: Q01DX009 (ip), vehicle: saline + alcohol",176 % of control
same,T/C,"dose: 128.0 micrograms/kg/injection, schedule: Q04DX003 (ip), vehicle: other",190 % of control
same,T/C,"dose: 128.0 micrograms/kg/injection, schedule: Q04DX003 (ip), vehicle: water",190 % of control
same,T/C,"dose: 240.0 micrograms/kg/injection, schedule: Q04DX002 (ip), vehicle: saline + alcohol",178 % of control
same,T/C,"dose: 256.0 micrograms/kg/injection, schedule: Q08DX002 (ip), vehicle: other",181 % of control
same,T/C,"dose: 256.0 micrograms/kg/injection, schedule: Q08DX002 (ip), vehicle: saline + alcohol",181 % of control
same,T/C,"dose: 512.0 micrograms/kg/injection, schedule: Q08DX002 (ip), vehicle: saline + alcohol",177 % of control
same,T/C,"dose: 512.0 micrograms/kg/injection, schedule: Q08DX002 (ip), vehicle: saline",181 % of control
CN(Cc1cnc2nc(N)nc(N)c2n1)c1ccc(C(=O)N[C@@H](CCC(=O)O)C(=O)O)cc1,T/C,"dose: 0.75 mg/kg/injection, schedule: Q01DX015 (ip), vehicle: sodium bicarbonate",220 % of control
same,T/C,"dose: 1.0 mg/kg/injection, schedule: Q02DX005 (ip), vehicle: saline",90 % of control
same,T/C,"dose: 1.3 mg/kg/injection, schedule: Q01DX009 (ip), vehicle: sodium bicarbonate",205 % of control and 223 % of control
same,T/C,"dose: 1.5 mg/kg/injection, schedule: Q01DX009 (ip), vehicle: other",213 % of control
same,T/C,"dose: 1.5 mg/kg/injection, schedule: Q01DX009 (ip), vehicle: saline",213 % of control
same,T/C,"dose: 1.5 mg/kg/injection, schedule: Q01DX015 (ip), vehicle: sodium bicarbonate",215 % of control and 263 % of control
same,T/C,"dose: 1.5 mg/kg/injection, schedule: Q## X009 (ip), vehicle: sodium bicarbonate",224 % of control
same,T/C,"dose: 3.0 mg/kg/injection, schedule: Q01DX009 (ip), vehicle: other",90 % of control
same,T/C,"dose: 3.0 mg/kg/injection, schedule: Q01DX015 (ip), vehicle: sodium bicarbonate",271 % of control
same,T/C,"dose: 3.0 mg/kg/injection, schedule: Q02DX005 (ip), vehicle: sodium bicarbonate",209 % of control
same,T/C,"dose: 4.0 mg/kg/injection, schedule: Q04DX003 (ip), vehicle: sodium bicarbonate",207 % of control
same,T/C,"dose: 5.4 mg/kg/injection, schedule: Q04DX003 (ip), vehicle: sodium bicarbonate",209 % of control
same,T/C,"dose: 7.0 mg/kg/injection, schedule: Q01DX005 (ip), vehicle: sodium bicarbonate",90 % of control
same,T/C,"dose: 8.0 mg/kg/injection, schedule: Q04DX003 (ip), vehicle: sodium bicarbonate",209 % of control
same,T/C,"dose: 8.64 mg/kg/injection, schedule: Q04DX003 (ip), vehicle: sodium bicarbonate",224 % of control
same,T/C,"dose: 9.0 mg/kg/injection, schedule: Q04DX003 (ip), vehicle: sodium bicarbonate",209 % of control
same,T/C,"dose: 9.2 mg/kg/injection, schedule: Q04DX003 (ip), vehicle: saline",231 % of control
same,T/C,"dose: 12.0 mg/kg/injection, schedule: Q04DX003 (ip), vehicle: sodium bicarbonate",217 % of control
same,T/C,"dose: 14.4 mg/kg/injection, schedule: Q04DX003 (ip), vehicle: sodium bicarbonate",231 % of control
same,T/C,"dose: 15.0 mg/kg/injection, schedule: Q04DX003 (ip), vehicle: sodium bicarbonate",211 % of control
same,T/C,"dose: 15.0 mg/kg/injection, schedule: Q04DX004 (ip), vehicle: sodium bicarbonate",225 % of control
same,T/C,"dose: 16.0 mg/kg/injection, schedule: Q04DX003 (ip), vehicle: sodium bicarbonate",225 % of control
same,T/C,"dose: 18.0 mg/kg/injection, schedule: Q04DX003 (ip), vehicle: sodium bicarbonate",224 % of control
same,T/C,"dose: 24.0 mg/kg/injection, schedule: Q04DX003 (ip), vehicle: sodium bicarbonate",204 % of control and 245 % of control
same,T/C,"dose: 25.0 mg/kg/injection, schedule: Q04DX003 (ip), vehicle: sodium bicarbonate",85 % of control
same,T/C,"dose: 30.0 mg/kg/injection, schedule: Q04DX003 (ip), vehicle: sodium bicarbonate",231 % of control and 247 % of control
same,T/C,"dose: 33.3 mg/kg/injection, schedule: Q04DX003 (ip), vehicle: sodium bicarbonate",96 % of control
same,T/C,"dose: 36.0 mg/kg/injection, schedule: Q04DX002 (ip), vehicle: sodium bicarbonate",97 % of control
same,T/C,"dose: 60.0 mg/kg/injection, schedule: Q01DX001 (ip), vehicle: sodium bicarbonate",50 % of control
same,T/C,"dose: 60.0 mg/kg/injection, schedule: Q04DX002 (ip), vehicle: sodium bicarbonate",221 % of control
